Test results: PMC3314968
No constants are given. Whether binding was seen depends on the method and setting. Binding seen in cells or lysates may run through a third protein. Some entries that bind do so weakly or less than the wild type. For some assays here: Tags and fused reporters may be left off the sequences shown.

Sequences of proteins named here, by UniProt entry; tags and fusion partners are left off. A change or cut given only in a name is not applied to a line headed by its entry.
UniProt Q8NEZ2: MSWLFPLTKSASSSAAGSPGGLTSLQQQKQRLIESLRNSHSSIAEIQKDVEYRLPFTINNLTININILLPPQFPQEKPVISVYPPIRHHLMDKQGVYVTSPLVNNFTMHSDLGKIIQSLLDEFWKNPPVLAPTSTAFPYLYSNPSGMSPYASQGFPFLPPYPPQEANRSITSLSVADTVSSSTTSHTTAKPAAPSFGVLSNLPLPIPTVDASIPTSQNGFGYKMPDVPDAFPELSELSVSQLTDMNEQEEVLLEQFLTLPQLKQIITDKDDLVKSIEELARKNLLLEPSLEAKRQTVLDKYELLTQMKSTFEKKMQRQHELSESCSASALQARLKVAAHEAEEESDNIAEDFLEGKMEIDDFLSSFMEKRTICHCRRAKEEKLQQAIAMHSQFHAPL

Legend:
GST-TSG101 (human) = GST-TSG101 (human) (UniProt Q99816); experiment: pull-down; 293T cells transfected with GST-TSG101, Myc-VPS28, HA-VPS37A and HA-UBAP1 (WT or M1 to M4); glutathione-coated beads; western blot with anti-HA
[1] = molecular target: T1, UBAP1 (1-68)-His6 (human) (UniProt Q9NZ09); experiment: pull-down + SEC; subunits coexpressed in E. coli from a polycistronic vector; complex purified by affinity chromatography (C-terminal His6 on UBAP1) and gel filtration (HiLoad 16/60 Superdex 200); Coomassie-stained SDS-PAGE of the peak
T1 sequence: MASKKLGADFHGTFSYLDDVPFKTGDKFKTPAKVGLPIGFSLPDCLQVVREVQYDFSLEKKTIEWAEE

[2] = molecular target: T2, UBAP1 (1-77)-His6 (human) (UniProt Q9NZ09); experiment: as above
T2 sequence: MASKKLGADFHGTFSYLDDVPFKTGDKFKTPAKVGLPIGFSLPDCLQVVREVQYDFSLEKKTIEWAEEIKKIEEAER

[3] = molecular target: T3, UBAP1 (1-92)-His6 (human) (UniProt Q9NZ09); experiment: as above
T3 sequence: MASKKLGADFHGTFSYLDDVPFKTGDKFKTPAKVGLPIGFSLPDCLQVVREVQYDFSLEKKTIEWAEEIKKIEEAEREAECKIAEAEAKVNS

[4] = molecular target: T4, UBAP1-His6, full-length human UBAP1 (ubiquitin associated protein 1) (human) (UniProt Q9NZ09); experiment: as above
T4 sequence: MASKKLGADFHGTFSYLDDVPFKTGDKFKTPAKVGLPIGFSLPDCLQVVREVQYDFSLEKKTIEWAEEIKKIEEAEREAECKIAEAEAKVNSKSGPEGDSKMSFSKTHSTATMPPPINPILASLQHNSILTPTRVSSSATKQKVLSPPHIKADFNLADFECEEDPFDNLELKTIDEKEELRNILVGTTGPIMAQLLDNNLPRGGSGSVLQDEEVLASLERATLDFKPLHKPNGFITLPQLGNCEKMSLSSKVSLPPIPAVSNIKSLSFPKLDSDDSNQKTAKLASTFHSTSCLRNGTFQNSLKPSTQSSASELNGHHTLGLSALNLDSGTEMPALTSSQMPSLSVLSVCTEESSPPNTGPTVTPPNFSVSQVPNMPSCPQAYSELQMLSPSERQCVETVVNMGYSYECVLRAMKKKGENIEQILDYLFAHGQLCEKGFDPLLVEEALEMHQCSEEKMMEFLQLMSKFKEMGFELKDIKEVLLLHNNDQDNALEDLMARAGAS

[5] = molecular target: One-Strep tagged TSG101 (OSHA-TSG101) (human) (UniProt Q99816); experiment: pull-down; lysate of cells stably expressing OSHA-TSG101 at endogenous levels; affinity purification on a Strep-Tactin matrix; western blot with anti-TSG101, anti-VPS37A and anti-UBAP1; empty vector (OSHA) cells as control
GST-UBAP1 (human) = molecular target: T5, GST-UBAP1 (human) (UniProt Q9NZ09); experiment: pull-down; GST fusions overexpressed in 293T cells, purified with glutathione beads; endogenous TSG101 detected (Figure S1C)
T5 sequence: T4 sequence

| Substance | binding [1] | binding [2] | binding [3] | binding [4] | also measured |
| --- | --- | --- | --- | --- | --- |
| HA-VPS37A (from UniProt Q8NEZ2 1-397) | – | – | – | – | binding (GST-TSG101 (human)): binds |
| TSG101 (198-390) (from UniProt Q99816 198-390) (domain or fragment) | binds | binds | binds | binds | – |
| VPS37A (229-397) (from UniProt Q8NEZ2 229-397) (domain or fragment) | binds | binds | binds | binds | – |
| VPS37A of the OSHA-TSG101 cell line (from UniProt Q8NEZ2 1-397) | – | – | – | – | binding [5]: binds |
| endogenous TSG101 of 293T cells (from UniProt Q99816 1-390) | – | – | – | – | binding (GST-UBAP1 (human)): binds |
